Test results taken from PMC4939794 (Biochemistry, 2015).

B1: LOO7-WT (leave-one-out GFP: circularly permuted OPT-GFP truncated to remove strand 7) (other)
chain: MTHHHHHHSSGKNGIKANFTVRHNVEDGSVQLADHYQQNTPIGDGPVLLPDNHYLSTQTVLSKDPN[about 20 residues skipped]GGTGGSMSKGEELFTGVVPILVELDGDVNGHKFSVRGEGEGDATIGKLTLKFICTTGKLPVPWPTLVTTLTYGVQCFSRYPDHMKRHDFFKSAMPEGYVQERTISFKDDGKYKTRAVVKFEGDTLVNRIELKGTDFKEDGNILGHKLEYNF
B2: LOO7-HA4 (computationally designed leave-one-out GFP with 7 mutations) (designed binder)
chain: MTHHHHHHSSGKNGIKITFTVTHNVEDGSVQLADHYQQNTPIGDGPVLLPDNHHLKTTTVLSKDPN[about 20 residues skipped]GGTGGSMSKGEELFTGVVPILVELDGDVNGHKFSVRGEGEGDATIGKLTLKFICTTGKLPVPWPTLVTTLTYGVQCFSRYPDHMKRHDWFKSAMPEGYVQERTISFKDDGKYKTRAVVKFEGDTLVNRIELKGTDFKEDGNILGHKLEYNF

Experiments:
[1] = biological target: HA peptide, 12-residue peptide from H5N1 influenza virus hemagglutinin (influenza A virus H5N1 …); experiment: other fluorescence titration
SEC = biological target: the molecule itself; experiment: SEC

Row | Binder | Kd [1] | ratio of oligomers to monomers, with HA peptide added (SEC) | ratio of oligomers to monomers, without peptide (SEC)
1 | B1 | > 1000 µM | – | –
2 | B2 | – | ~0.33 oligomers:monomers | ~1 oligomers:monomers
